Consider four substances from patent US6723699B1, “Treating disorders by application of insulin-like growth factors and analogs” (Cephalon, Inc., priority 1989, dated 2004).

The subject of data set [1] is cultured rat septal cells. The data set is described as follows: ChAT activity in cultured rat septal cells. Format: cell-based. The procedure: The effect of simultaneous administration of IGF-I and NGF on ChAT activity was assayed in cultured septal neurons. ChAT is the initial enzyme in the synthesis of the neurotransmitter, acetylcholine, and is a specific biochemical marker for cholinergic neurons. Assay of this enzyme may be used as an indication of the effects of IGF (and other factors) on the survival of cholinergic neurons and/or regulation of this enzyme. […] In FIG. 9 open squares represent IGF-I, diamonds indicate IGF-I+2 nM NGF, open circles indicate 2 nM NGF, and the horizontal line at 403 DPM represents uninduced cells. A similar additive effect was seen when saturating concentrations of IGF-I were combined with saturating or sub-maximal concentrations of NGF, as shown in FIG. 10. In FIG. 10 open squares indicate NGF, diamonds indicate NGF+25 nM IGF-I, open circles represent 25 nM IGF-I, and the horizontal line at 554 DPM represents uninduced cells.
Cultured rat septal cell experiments were performed generally as described in Hartikku and Hefti, J. Neuroscience, 8:2967-2985 […], Hayashi and Patel, Dev. Brain Res., 36:109-120 (1987), and as follows.
(§1) Dissociated cell cultures of the septal region of day 17 embryonic rats were prepared by standard techniques known to those skilled in the art, using enzymatic (Dispase, Collaborative Research) dissociation of tissue. Cells were seeded (plated) at 6×10^5 cells/cm^2 in poly-1-ornithine-laminin coated plastic tissue culture wells, and cultured in serum-free N2 medium (Bottenstein et al., 1978) for 5 days without feeding. Control (uninduced) cultures received no added growth factors; induced cultures received the concentrations of IGF-I and NGF indicated in FIGS. 9 and 10 at the time of plating. NGF is commercially available. ChAT was assayed by the method described in McManaman, et al. Dev. Biol. 125:311-320 (1988). AChE staining was performed according to the method of Hartikka and Hefti, J. Neuroscience 8:2967-2985 (1988).

The next data set deals with septal cultures. As to the kind of experiment: Number of AChE positive cells in rat septal cultures. The data set is classed as cell-based. As to conditions: 2 nM NGF; same conditions. Here is the method: as §1
We have shown that under specific culture conditions (4×10^5 cells/cm^2 in the presence of medium containing 10% bovine calf serum), IGF-I increased the number of AChE positive cells by 3-4 fold over control, growth factor-free cultures, FIG. 12.

For a further data set, the target named is T1, IGF-I receptor (Rattus norvegicus, UniProt P24062).
T1 construct: Brain tissue containing the cerebral cortex and cerebellum was dissected from adult Sprague-Dawley rats; from tissue; host or cells: adult Sprague-Dawley rat brain (cerebral cortex and cerebellum), homogenate pellet
The data set is described as follows: 125I-[Threonine59]IGF-I displacement (IGF-I receptor competition) assay, rat brain homogenate. The data set is classed as binding. The note with it: for displacement of 125I-[Threonine59]IGF-I (in words): rat brain homogenate. The procedure:
Brain tissue containing the cerebral cortex and cerebellum was dissected from adult Sprague-Dawley rats (Hilltop Lab Animals, Inc. Scottsdale, Pa.) and homogenized at low power for 5 minutes in a Brinkmann Polytron homogenizer (Westbury, N.Y.) containing 50 volumes of ice-cold buffer consisting of 10 mM HEPES, 0.5% BSA, 0.0125% NEM, 0.025% bacitracin, and 100 KIU/ml aprotinin, pH 7.6 (Bohannon et al., Endocrinology 119:943-945 (1986). Following homogenization, the tissue was collected after centrifugation at 7800×g for 20 minutes and resuspended in 10 volumes of assay buffer. Tissue (50 μl), 100 μl ^125I-[Threonine^59]IGF-I (20 pM), and 50 μl of buffer or peptides of varying concentration were added to 96-well plates and incubated on ice for 3 hours. After the incubation period, the tissue was collected on Whatman GF/C filters that had been pre-soaked in 0.01% polyethylenimine and washed four times with ice-cold assay buffer using a Brandel cell harvester (Gaithersburg, Md.). The filters were removed and the bound ^125I-[Threonine 59]IGF-I was measured using a Beckman Model 5500B Gamma Counter.
(In general: In a radioligand displacement assay an active substance lowers the binding of a labelled ligand.)

In data set [2] the test system is 125I-[Threonine59]IGF-I binding to brain tissue sections. As to the kind of experiment: 125I-[Threonine59]IGF-I binding displacement on rat brain tissue sections. The procedure:
Brains were removed intact from adult Sprague-Dawley rats, frozen on powdered dry ice, and cut into 20 μm sections (at the level of the cerebellum and brain stem) which were
thaw-mounted onto gelatin-coated glass microscope slides (Herkenham and Pert, J. Neurosci. 2:1129-1149 (1982)). Using a modification of the method of Bohannon et al. (1986), the tissue sections were covered with 250 μl of HEPES assay buffer (see Example 1) containing 0.01 nM ^125I-[Threonine^59]IGF-I alone or in combination with unlabeled IGF-I, IGF-II, or synthetic peptide fragments thereof. The sections were incubated at 4° C. for 24 hours and then rinsed in three 1-minute changes (200 ml each) of ice-cold HEPES assay buffer. The tissue sections were then wiped off the slides with filter paper, and the tissue-bound radioactivity was measured in a Beckman Model 5500B Gamma Counter.

Data set [3] deals with 14-day embryonic rat spinal cord neurons. The data set is described as follows: Choline acetyltransferase activity in dissociated embryonic rat spinal cord neuron cultures. As to conditions: 48 hr incubation. The data set is classed as cell-based. The procedure: The activity of IGF-I, IGF-II, or synthetic peptide derivatives of these molecules was assayed on dissociated cultures of 14-day embryonic rat spinal cord neurons. The spinal cord neurons were obtained from trypsin-dissociated spinal cords, plated, incubated with peptides, and subsequently (48 hr later) assayed for choline acetyltransferase activity as described by […] et al., Dev. Biol. 125:311-320 (1988).

Another data set concerns motoneurons. The data set is described as follows: Motoneuron survival in ovo (developmentally regulated motoneuron death). The data set is classed as in vivo, chick. The note with it: 5 μg/egg daily onto chorioallantoic membrane, E6 to E9, counted E10. From the text:
In the spinal cord, as well as in other regions of the nervous system, neurons are over-produced during development, and undergo a process of naturally occurring cell death prior to […] (reviewed in Oppenheim, R. W. 1991, Annu Rev. Neurosci. 14:453-501). During this period, approximately 50% of the motoneurons degenerate and die. Certain neurotrophic agents applied exogenously during this period prevent or retard this form of neuronal death (e.g., partially purified muscle extracts and ciliary neurotrophic factor reduce motor neuron death in chick embryos (McManaman et al., 1990, Neuron 4:891-898; Oppenheim et al. 1991, Science 25:1616-1617).
The IGFs were administered daily onto chorioallantoic membrane (5 μg/egg in a volume of 50 μl) from embryonic day E6 to E9 through a small window cut into the shell of the egg. Control embryos received an equal volume of vehicle (phosphate buffered saline) alone on E10, the embryos were removed, sacrificed and the spinal cords sectioned. Motoneurons (identified morphologically in silver-stained sections) were counted in serial sections from both treated and control embryos. […] The differences between effects produced by the different IGFs used were not statistically significant (Student t test […]).

For data set [4], the system named is 14.5 day embryonic rat spinal cord neurons. The data set is described as follows: Choline acetyltransferase activity in 14.5 day embryonic rat spinal cord neurons, serum-free. Format: cell-based. Here is the method: The activity of IGF-I, IGF-II and IGF-III was assayed on dissociated cultures of 14.5 day embryonic rat spinal cord neurons. The spinal cords were removed from embryos and dissociated in 0.05% trypsin in Dulbecco's Phosphate Buffered Saline (DPBS). Dissociated cells were seeded onto poly-1-ornithine substrates in 96 well microtiter plates at 2×10^5 cells/well in 200 μl of serum-free and insulin-free N2 medium (Bottenstein and Sato, 1979 supra) containing 0.05% bovine serum albumin. After a 48 hr incubation at 37° C. in a humidified atmosphere of 5% CO2, 95% air, cultures were assayed for choline acetyltransferase activity according to a modification (McMananman et al., Dev. Bio., 25:311-320 (1988)) of the technique described by Fonnum (Fonnum, J. Neurochem. 24:405-409 (1975)).

Data set [5] relates to brain ornithine decarboxylase. As to the kind of experiment: Induction of brain ornithine decarboxylase after intracerebral injection, 4 day old rats. The data set is classed as in vivo, rat. The note with it: 6 hours. The procedure: The in vivo activity of IGF-I, IGF-II or synthetic peptide derivatives of these molecules was tested using a biochemical marker for CNS neurotrophic activity, the induction of brain ornithine decarboxylase. The induction (i.e. increased activity) of ornithine decarboxylase has been reported to be a general marker for the actions of a variety of trophic factors. (Schwartz et al., Dev. Brain Res. 1:403-413 (1981); Kanje et al., Brain Res. 381:24-28 (1986); Russell et al., Life Sci. 19:1297-1306 (1976); MacDonnell et al. Proc. Natl. Acad. Sci. USA 74, 4681-4684 (1977); […] et al. Proc. Natl. Acad. Sci. USA 82, 4365-4368 (1985)). Sprague-Dawley rats, 4 days old, were injected intracerebrally (in the area of the lateral ventricle) with 5 μl of 0.1 M phosphate-buffered saline (PBS) containing IGF-I, IGF-II or a synthetic peptide derivative (1.25-2.5 μg dose, with 6 animals per treatment group). After 6 hours, the brains were removed, and ornithine decarboxylase was assayed essentially as described by Lewis et al., Proc. Natl. Acad. Sci. USA 75:1021-1023 (1978).

Regarding “NGF: Nerve Growth Factor, commercially available transmitter enhancer”, the “ChAT activity % increase over control” value is 56% in data set [1] (single growth factor 0.02 nM); 36% in data set [1] (single growth factor 0.2 nM); 44% in data set [1] (single growth factor 2.0 nM, 5 days). Besides, the “number of AChE positive cells (in words)” value in the data set with septal cultures was “did not affect the number of AChE positive cells”.
On to SRVSR RSR (SRVSRRSR) [IGF-II(33-40)], for which the entries for the “PERCENT MAX. BOUND” value (with IGF-I receptor (peptide 1 mM); in data set [2] (peptide 1 mM); in data set [2] (peptide .10 mM)) were 92%, 76% and 82%, respectively. In data set [2] (rat brain sections), the “displacement of 125I-[Threonine59]IGF-I binding (in words)” value is listed as “displaced”. Also, the “choline acetyltransferase activity (in words)” value in data set [3] is reported as “dose-dependent increase in choline acetyltransferase activity”.
On to “TLCGAEL VDALQFVCGDRGFYFNKPTGYGSSS-RRAPQTGIVDECCFRSCDLRRLEMYCAPLKPAKSA [IGF-III]”, for which the “PERCENT MAX. BOUND” value with IGF-I receptor (peptide 40 nM) was 17.6%. Besides, in the data set with IGF-I receptor, the “displacement of 125I-[Threonine59]IGF-I (in words)” value is listed as “potent displacers”. Also, the “prevention of developmentally regulated motoneuron death (in words)” value with motoneurons is “partially prevented developmentally regulated motoneuron death”. For the same substance, the “relative potency in increasing ChAT (in words)” value in data set [4] (serum containing medium) was “greater potency in increasing CHAT compared with IGF-I”. For the same substance, the “choline acetyltransferase activity (in words)” value in data set [4] (serum-free and insulin-free N2 medium, 48 hr) is on record as “substantial, dose-dependent increase in choline acetyltransferase activity”; in data set [3], “active in the spinal cord assay”.
Turning to “YFNKP TGYGS SSRRA PQT (YFNKPTGYGSSSRRAPQT) [IGF-I(24-41)]”, the “PERCENT MAX. BOUND” value with IGF-I receptor (peptide 50 μM) came out at 99%; with IGF-I receptor (peptide 100 μM), 44%. In the data set with IGF-I receptor, the “displacement of 125I-[Threonine59]IGF-I (in words)” value was “active in displacing”. Also, the “brain ornithine decarboxylase activity (in words)” value in data set [5] is “increased brain ornithine decarboxylase activity”. The “choline acetyltransferase activity (in words)” value in data set [3] is recorded as “dose-dependent increase in choline acetyltransferase activity”.
